Reference: PubChem BioAssay AID686979 (National Center for Advancing Translational Sciences (NCATS), 2013)
The whole screen tested about 420,000 compounds, of which about 50,000 (12%) were called active. The inconclusive results got no clear call from the source; some entries with a clear call stand among them for comparison. Calls come from the whole dose curve; as a rule, active = well fitted inhibition curve with a large enough effect; inconclusive = small, poorly fitted or top-dose-only effect; inactive = flat fitted curve, though single readings scatter. No potency is given beside an inconclusive call; the fits are too rough.

assay: qHTS for Inhibitors of human tyrosyl-DNA phosphodiesterase 1 (TDP1): qHTS in cells in presence of CPT; details: chicken DT40 Tdp1-/-;hTDP1 cells + 20 nM CPT, ATP luminescence, 48 h; activity change, negative = growth inhibition: at 46.2 µM (top of the series) unless noted; note: nearly all actives have a fitted effect of over 55% in size
Method in brief: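 Chicken DT40 Tdp1-/- cells stably complemented with human TDP1 were seeded at 400 cells/well in medium containing 20 nM camptothecin, exposed to pin-transferred compounds, and grown at 37 °C for at least 48 hr. Viability was read as ATP luminescence.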
% is set by controls: 0 for no effect and ±100 for the full control effect; potency is the fitted concentration of half-maximal effect; tags give direction and shape of the fitted curve.

Structure (SMILES) | activity change, negative = growth inhibition | Potency
CCn1ccnc1CN1CCC(CO)(CCOc2ccccc2)CC1 | inactive: 11.2% | –
CCOc1cccc(C(=O)NC(=S)Nc2cccc(NC(=O)c3ccccc3Cl)c2)c1 | – | inconclusive [inhibitor, single point]
CCNC(=O)C(CCSC)NS(=O)(=O)c1ccc(C)cc1 (stereo unspecified) | inactive: 0.269% | –
CCOc1ccc(Cl)cc1-c1cc(C(=O)Nc2ccc(C(C)C)cc2)[nH]n1 | – | inconclusive [inhibitor, single point]
COc1ccc(-c2noc(-c3ccccc3C(=O)NCc3ccco3)n2)cc1OC | – | inconclusive [inhibitor, single point]
CCN1CCN(c2cc(C)c3cc(NC(=O)c4cc(OC)cc(OC)c4)ccc3n2)CC1 | – | inconclusive [inhibitor, single point]
Cc1ccc(OCCn2c(COc3ccc(Cl)cc3)nc3ccccc32)cc1 | – | inconclusive [inhibitor, single point]
CCCNC(=O)C(Cc1cccc(Cl)c1)NC(=O)c1ccc(C#N)cc1 (stereo unspecified) | – | inconclusive [inhibitor, partial curve, poor fit]
Cc1ccc(-n2ncc3c2CCCC3NC(=O)c2ccoc2)cc1C (stereo unspecified) | – | inconclusive [inhibitor, single point]
CCN(CC)C(=O)c1[nH]cnc1C(=O)N[C@@H](C)C(=O)OCc1ccccc1 | – | inconclusive [inhibitor, partial curve, poor fit]
CCc1ccccc1NC(=O)Cn1c(=O)ccc2cc(S(=O)(=O)N3CCC(C)CC3)ccc21 | inconclusive: -30.2% [inhibitor] | –
COCCCNC(=S)Nc1cc2oc3ccccc3c2cc1OC | – | active: 8.2 µM
Cc1ccc(O)c(-c2cc(C(=O)Nc3ccc(S(=O)(=O)N4CC(C)OC(C)C4)cc3)[nH]n2)c1 (stereo unspecified) | – | active: 25.9 µM
COc1ccccc1NC(=O)CN1CCN(C(=O)c2ccco2)CC1 | – | inconclusive [inhibitor, partial curve]
N#CC12COC3(CCCCC3C1(C#N)C#N)OC2=N (stereo unspecified) | – | active: 2.31 µM
CCN(CC)S(=O)(=O)c1ccc(N2CCOCC2)c(NC(=O)C2COc3ccccc3O2)c1 (stereo unspecified) | – | active: 18.4 µM
CCC(C)NC(=O)Cn1cnc2sc(C)c(S(=O)(=O)N3CCN(c4ccccc4OC)CC3)c2c1=O (stereo unspecified) | – | inactive
CCOC(=O)C1CCCCN1Cc1cccc(C(F)(F)F)c1 (stereo unspecified) | – | inconclusive [inhibitor, single point]
O=C1c2ccccc2C(c2nnnn2Cc2ccccc2)N1CCc1ccccc1F (stereo unspecified) | – | inconclusive [inhibitor, single point]
COc1ccc(N2C(=O)CCSC23C(=O)N(Cc2ccc(F)cc2)c2ccccc23)cc1Cl (stereo unspecified) | – | active: 9.2 µM
N#C/C(=C\c1ccc(O)c(O)c1)S(=O)(=O)c1ccccc1 | inactive: -7.95% | –
N#CC(c1ccccc1)C(CC(=O)c1ccccc1)c1ccccc1 (stereo unspecified) | – | inconclusive [inhibitor, single point]
CCN(CC)c1ccc(NC(=O)c2ccc(=O)[nH]c2)cc1S(=O)(=O)Nc1ccc(OC)cc1 | – | active: 29.1 µM
N#CCCN1CCN(Cc2ccccc2)CCC1=O | – | inactive

Structure (SMILES) | activity change, negative = growth inhibition | Potency
CCc1ccc(N=c2c([N+](=O)[O-])nn(-c3ccccc3)n2O)cc1 | – | inconclusive [inhibitor, partial curve]
O=C(CN(Cc1ccc(F)cc1)C(=O)c1csnn1)NCc1ccc2c(c1)OCO2 | inactive: -3.33% | –
COCc1ccc(C(=O)N2CCCC(N3CCN(c4cccc(Cl)c4)CC3)C2)s1 (stereo unspecified) | – | inconclusive [inhibitor, single point]
CC(/C=N/NC(=O)c1nnn(-c2nonc2N)c1C(C)C)=C\c1ccccc1 | – | inconclusive [inhibitor, single point]
Cc1cc(C)nc(NNS(=O)(=O)c2ccc(F)c(Cl)c2)n1 | – | active: 23.1 µM
CC(=O)Oc1c(C)c(OC(C)=O)c2c(c1C(C)=O)OC1CC(=O)C(C(C)=O)=C(O)C21C (stereo unspecified) | – | inconclusive [inhibitor, single point]
Cc1ccc(C)c(N2CCN(C(=O)Cn3c(=O)oc4cc(S(=O)(=O)N5CCCC5)ccc43)CC2)c1 | – | active: 16.4 µM
COC(=O)c1ccc(C(=O)OC)c(NC(=O)CN2CCN(c3ccccc3)CC2)c1 | – | inconclusive [inhibitor, single point]
COC(=O)Oc1ccccc1C(=O)O | inactive: 6.18% | –
COC(c1ccccc1)c1nnc(CCC(=O)N2CCN(C3CCCC3)CC2)o1 (stereo unspecified) | inactive: 20.3% | –
Cc1cccc(NC(=O)CSc2nc(C)nc3c2c(=O)n(C)c(=O)n3C)c1 | – | inconclusive [inhibitor, partial curve]
Cc1cc(-c2onc(C)c2C(=O)N/N=C/c2ccccc2)no1 | inactive: -9.97% | –
CN1CCN(CCc2nc3cc(NC(=O)COc4ccc(Cl)cc4)ccc3n2C)CC1 | – | inconclusive [inhibitor, single point]
COCCCNC(=S)NNC(=S)Nc1cccc(Cl)c1 | – | inconclusive [inhibitor, single point]
C[C@@H]1C[C@@H]2[C@H]3CCC4=CC(=O)C=C[C@]4(C)[C@]3(F)[C@@H](O)C[C@@]2(C)[C@@]1(O)C(=O)CO | inactive: -17.2% | –
Cc1csc(/N=C/N(C)C)c1C#N | inactive: 8.34% | –
COc1cc(C(=O)NCCSc2c(C)[nH]c3ccccc23)cc(OC)c1OC | – | inconclusive [inhibitor, single point]
O=C(Nc1ccccc1N1CCOCC1)c1cccc(Oc2ccccc2)c1 | – | inconclusive [inhibitor, single point]
Cc1ccc(NS(=O)(=O)c2cc(NC(=O)c3ccc4c(c3)NC(=O)CS4)ccc2Cl)c(C)c1 | – | inconclusive [inhibitor, single point]
O=C(COC(=O)c1cc(-c2cccs2)nc2ccccc12)c1ccc(Cl)cc1 | – | inconclusive [inhibitor, single point]
O=C(CSc1nnc(-c2ccccc2)n1Cc1ccccc1)NNC(=O)c1ccccc1O | – | active: 16.4 µM
O=C(Nc1ccccc1)OCCOc1ccccc1Br | – | inconclusive [inhibitor, single point]
CCOC(=O)C1CCCN(C(=O)c2ccc(Cl)c(S(=O)(=O)N3CCc4ccccc43)c2)C1 (stereo unspecified) | – | inconclusive [inhibitor, single point]
CCOc1ccc(NC(=O)CSc2nc3ccccc3c(=O)n2CCC(=O)NC2CCCCC2)cc1 | inactive: -14.5% | –

Structure (SMILES) | activity change, negative = growth inhibition | Potency
N=C1C(c2nc3ccccc3s2)=C(O)CN1NC(=O)c1ccccc1[N+](=O)[O-] | inactive: 6.83% | –
COc1cc(OC)nc(Nc2nc(C(N)c3ccccc3Cl)cs2)n1 (stereo unspecified) | – | inconclusive [inhibitor, single point]
O=C(N/N=C/c1cc2ccccc2[nH]1)c1ccccc1Cl | inactive: 0.207% | –
CCOc1ccc(Nc2oc(/C=C/c3cc(OC)c(OC)c(OC)c3)nc2C#N)cc1 | – | inconclusive [inhibitor, single point]
C=CCN(CC=C)C(=O)c1cccc(OC2CCN(CC(C)(C)C)CC2)c1 | – | inconclusive [inhibitor, single point]
CC(NC(=O)OCc1ccccc1)C(=O)OCN1C(=O)c2ccccc2C1=O (stereo unspecified) | – | inconclusive [inhibitor, single point]
CCOc1ccc(N(C(=O)Cn2nnc3ccccc32)C(C(=O)NC(C)(C)CC)c2cccn2C)cc1 (stereo unspecified) | – | inconclusive [inhibitor, partial curve]
O=C(NCC1CCCO1)c1cccc(NC(=O)c2ccc(Br)cc2)c1 (stereo unspecified) | – | inconclusive [inhibitor, single point]
COc1ccccc1OCC(=O)Nc1cc(S(=O)(=O)N2CCOCC2)ccc1N1CCCCC1 | – | active: 18.4 µM
CCOc1ccc2nc(N(CCCN(C)C)C(=O)c3ccc4c(c3)CCCC4)sc2c1 | – | inconclusive [inhibitor, single point]
Cc1occc1-c1nnc(SCC(=O)O)n1-c1ccccc1 | inactive: -5.89% | –
COc1ccccc1C(=O)N1N=C(c2ccc(NS(C)(=O)=O)cc2)CC1c1cccs1 (stereo unspecified) | inconclusive: -30.2% [inhibitor] | –
COc1cc2c(cc1NC(=O)CSc1nccn1C)oc1ccccc12 | – | inconclusive [inhibitor, single point]
CCCCOCCCNC(=O)C[C@@H]1C[C@@]2(C(=O)OC)CCCCC=C2N(CCc2ccc(OC)c(OC)c2)C1=O | – | inconclusive [inhibitor, single point]
COc1ccc(CCNC(=O)c2cc([C@@H](NC(=O)OC(C)(C)C)C(C)C)sc2N)cc1OC | – | active: 16.4 µM
Cc1cccc(C)c1-n1c(C)nn(CCOc2ccccc2)c1=O | inactive: 7.7% | –
COCCNC(=O)C(OC(=O)c1cccs1)c1ccc(F)cc1 (stereo unspecified) | inactive: 2.93% | –
COc1ccccc1C(CNc1ncnc2sc(C)c(C)c12)N(C)C (stereo unspecified) | – | inconclusive [inhibitor, single point]
COc1cc(OC)cc(C(=O)NCCCCc2ccccc2)c1 | – | inconclusive [inhibitor, partial curve]
CC1(C(=O)NCc2ccccc2)Cc2c(-c3cccc(C(F)(F)F)c3)ccnc2O1 (stereo unspecified) | – | active: 3.66 µM
COc1ccccc1-c1cc(C(F)(F)F)nc(S(=O)(=O)CCCC(=O)O)n1 | – | active: 14.1 µM
COCC(=O)N1CCC2(CCN(Cc3ccccc3)CC2)CC1 | inactive: -2.3% | –
O=C1CC(N2CCN(c3nc4ccccc4s3)CC2)C(=O)N1Cc1cccs1 (stereo unspecified) | – | inconclusive [inhibitor, single point]
